Measured values taken from the BET-seq Pho4 binding data (Le et al. 2018).
This is one part of the list. Values were computed here from the reads of four pooled replicates and scatter widely.

The sequences below were run against T1, Pho4 (S. cerevisiae) (UniProt P07270) (assay: relative binding free energy (BET-seq); higher = weaker binding). Settings: reference: library average.
T1 sequence: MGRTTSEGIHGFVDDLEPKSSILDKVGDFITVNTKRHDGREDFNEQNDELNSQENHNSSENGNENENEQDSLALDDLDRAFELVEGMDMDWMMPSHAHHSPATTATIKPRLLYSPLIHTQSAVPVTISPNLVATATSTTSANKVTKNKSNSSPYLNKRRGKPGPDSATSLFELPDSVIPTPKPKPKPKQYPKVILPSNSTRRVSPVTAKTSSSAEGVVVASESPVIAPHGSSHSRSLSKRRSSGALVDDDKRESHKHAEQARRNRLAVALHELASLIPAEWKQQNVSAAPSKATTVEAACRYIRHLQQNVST

Sequence | relative binding free energy [kcal/mol]
AAGGTCACGTGGAAGC | 0.37
CGTGACACGTGTTCGG | 0.06
GCGCTCACGTGTGGTT | 0.25
AGCGGCACGTGGTATG | -0.27
GCGGGCACGTGGGGGG | -0.2
TAAGGCACGTGTCTGA | -0.14
TGTAACACGTGAGCGT | 0.24
TTCGACACGTGGTGTT | -0.08
ATAGTCACGTGATTCT | 0.19
GTTTGCACGTGCGGAT | -0.01
GGGTACACGTGATTGG | 0.19
GCCGTCACGTGATGGG | 0.24
AGTTGCACGTGTTTAA | 0.06
GCAAGCACGTGTTGGG | 0.03
TATTGCACGTGTGGAA | 0.15
AGGTGCACGTGATGAA | 0.12
AGCTGCACGTGAAGTT | 0.17
AAAGTCACGTGAGTTA | 0.26
GTTAGCACGTGCAAGG | 0.01
TATTACACGTGGGGCT | -0.06
GGGTACACGTGTTTTT | 0.17
GGGCTCACGTGACGGG | 0.42
TGTCGCACGTGGATTT | -0.03

Sequence | relative binding free energy [kcal/mol]
AGGTACACGTGTGAGA | 0.24
GGGATCACGTGATTGC | 0.35
GCGGACACGTGTTGGG | 0.06
TTCGTCACGTGTCTTG | 0.07
GGTGCCACGTGTCTGT | -0.08
TAGTTCACGTGCCGTG | 0.29
TTTTGCACGTGCATTG | -0.05
CGCGGCACGTGTGTGA | -0.05
TTTTGCACGTGTAATA | 0.06
TTCTGCACGTGGGCGT | -0.05
GTGTTCACGTGTGTAG | 0.4
TTGGACACGTGTGGGC | 0.18
GCAGTCACGTGGGGTC | 0.05
GCGTTCACGTGGCTGA | 0.42
GTGTGCACGTGCTTGG | -0.09
TAGTTCACGTGATATG | 0.29
CGTGTCACGTGATGAA | 0.18
GTGTACACGTGGATTG | 0.12
TATATCACGTGATAGG | 0.23
CGAGACACGTGCGGGT | -0.03
TAAGTCACGTGTAGGT | 0.18
AGATTCACGTGTTATA | 0.09
GTGATCACGTGTGAGA | 0.32

Sequence | relative binding free energy [kcal/mol]
GGCGTCACGTGTTATT | 0.11
GTTAGCACGTGGATAT | -0.13
AGTGACACGTGGAAAG | 0.02
ACGAGCACGTGCGGGG | -0.02
GGTGCCACGTGAGTGT | 0.17
GCATTCACGTGAGTTT | 0.42
GGGCACACGTGGTATG | -0.03
GTCTGCACGTGTGGTG | 0.1
TTTTACACGTGAGGGA | 0.27
ATGTTCACGTGGTATC | 0.35
TAAAACACGTGAGGTG | 0.2
GTTGACACGTGAGGAG | 0.05
TGATCCACGTGGGGGC | -0.18
AGGTTCACGTGGTCAG | 0.21
ACAGGCACGTGGGTTT | -0.12
TGGTTCACGTGCAAAG | 0.24
TCTGTCACGTGCTTTA | 0.21
AGGTGCACGTGGCTGG | -0.04
TAATTCACGTGGTAGG | 0.19
GGGCACACGTGGGTGT | -0.02
TGTCTCACGTGGGCTG | 0.08
TTGAGCACGTGATTGT | 0.13
GCGGACACGTGGTAGG | -0.05

Sequence | relative binding free energy [kcal/mol]
GGGTACACGTGGTCTT | -0.02
AGTTACACGTGGGAAT | 0.13
TCGTTCACGTGGAATT | 0.28
TGAATCACGTGTGGCA | 0.24
TGGAGCACGTGAGGTG | 0.24
GAATGCACGTGTGGGG | 0.11
TTATACACGTGCGTAT | -0.06
GTGGACACGTGGTTCA | 0.02
CTTTCCACGTGATGTG | 0.25
GTGTTCACGTGTGACG | 0.37
AATAGCACGTGTGTGA | -0.05
TAGTACACGTGGTAGG | 0.03
GTTGTCACGTGCTAAG | 0.07
GTCGGCACGTGAGATA | 0.3
GATGACACGTGGATGT | 0.12
GGGGTCACGTGTTATA | 0.2
AATTGCACGTGGAGAA | 0.1
GAATGCACGTGGGGCT | -0.02
GTTCTCACGTGGTTCG | 0.16
AATGGCACGTGCCGGT | -0.22
ATGATCACGTGCGGTA | 0.17
GTGGCCACGTGTATGG | -0.1
GGTAGCACGTGCGGTG | -0.02

Sequence | relative binding free energy [kcal/mol]
TTGGGCACGTGTGACT | 0
GTTTGCACGTGATATG | 0.12
TTCGGCACGTGAGGGG | 0.15
TTGGGCACGTGAGTGA | 0.13
TTTATCACGTGGCCGG | -0.05
TGTGGCACGTGTTAGA | -0.05
AATTTCACGTGAGGGT | 0.37
TTTATCACGTGGGCGC | -0.11
GACAGCACGTGGGTAT | -0.08
AAGTACACGTGGCGGG | 0.12
TGGGGCACGTGACTTG | 0.07
TTTTACACGTGATACT | 0.26
GGTTACACGTGATTAT | 0.23
AACGGCACGTGTGCGG | -0.16
AGAGACACGTGTGATT | 0.07
GCTGGCACGTGTTCAG | 0.08
GGATACACGTGGGTGC | 0.08
AATGGCACGTGTCTTG | -0.08
CTATGCACGTGGTAGT | -0.24
TGTGACACGTGAAGTG | 0.08
TGTAACACGTGCAGTA | 0.02
GCAGGCACGTGGCTGG | -0.1
TACGTCACGTGATGGT | 0.24
